Some of the results follow.
biological target: T1, MBP-FoxP1dN (Mus musculus, UniProt P58462 326-579); assay: PD-seq (MBP pull-down with sequencing); 20 mM Tris-HCl pH 7.5, 100 mM NaCl, 1.5 mM MgCl2, 0.4 uM protein, 0.1 uM dsDNA library, 30 min, room temperature, amylose pull-down; high values mean tight binding; conditions: protein: recombinant; tags: His6-MBP; chain copies: 2; dsDNA, one strand shown
T1 sequence: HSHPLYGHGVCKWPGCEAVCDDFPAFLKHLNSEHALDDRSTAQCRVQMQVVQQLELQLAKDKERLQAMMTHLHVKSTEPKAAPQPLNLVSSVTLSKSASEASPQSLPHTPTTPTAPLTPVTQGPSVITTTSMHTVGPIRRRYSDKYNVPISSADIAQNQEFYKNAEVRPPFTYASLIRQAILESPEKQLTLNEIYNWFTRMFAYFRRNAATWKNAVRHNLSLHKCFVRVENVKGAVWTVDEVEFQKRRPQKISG
Summary of the method: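 Binding is reads-per-million enrichment of pull-down over input, with replicates pooled. It comes from 30 min room-temperature incubation in Tris pH 7.5 buffer with NaCl and MgCl2 of 0.4 µM His6-MBP-tagged, N-terminally truncated mouse FoxP3 or FoxP1 fragment from E. coli with 0.1 µM Klenow-filled degenerate double-stranded DNA library, followed by amylose resin capture, three washes and Illumina sequencing of the released DNA.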

| Sequence | binding signal |
| --- | --- |
| GATGATTGTTCTCCCAGCTGATGAATTTGCAAGCTCGAGTAAACAAATTTTCCTAATCTTTCTGTTCAAGCGCCATCTAC | 0.929 RPM ratio (pull-down/input) |
| GATGATTGTTCTCCCAGCTGATGAATTTAGGCACTCGAGTAAACAAATTTTCCTAATCTTTCTGTTCAAGCGCCATCTAC | 0.916 RPM ratio (pull-down/input) |
| GATGATTGTTCTCCCAGCTGATGAATTTATCTGATCGAGTAAACAAATTTTCCTAATCTTTCTGTTCAAGCGCCATCTAC | 1.07 RPM ratio (pull-down/input) |
| GATGATTGTTCTCCCAGCTGATGAATTCATTATTTCGAGTAAACAAATTTTCCTAATCTTTCTGTTCAAGCGCCATCTAC | 1.04 RPM ratio (pull-down/input) |
| GATGATTGTTCTCCCAGCTGATGAATTGCATATATCGAGTAAACAAATTTTCCTAATCTTTCTGTTCAAGCGCCATCTAC | 1.33 RPM ratio (pull-down/input) |
| GATGATTGTTCTCCCAGCTGATGAATTTAATCCATCGAGTAAACAAATTTTCCTAATCTTTCTGTTCAAGCGCCATCTAC | 0.882 RPM ratio (pull-down/input) |
| GATGATTGTTCTCCCAGCTGATGAATTGAAATGTTCGAGTAAACAAATTTTCCTAATCTTTCTGTTCAAGCGCCATCTAC | 0.864 RPM ratio (pull-down/input) |
| GATGATTGTTCTCCCAGCTGATGAATTGGGCATATCGAGTAAACAAATTTTCCTAATCTTTCTGTTCAAGCGCCATCTAC | 0.94 RPM ratio (pull-down/input) |
| GATGATTGTTCTCCCAGCTGATGAATTCCCCCGATCGAGTAAACAAATTTTCCTAATCTTTCTGTTCAAGCGCCATCTAC | 0.785 RPM ratio (pull-down/input) |
| GATGATTGTTCTCCCAGCTGATGAATTTACGTAATCGAGTAAACAAATTTTCCTAATCTTTCTGTTCAAGCGCCATCTAC | 1.82 RPM ratio (pull-down/input) |
| GATGATTGTTCTCCCAGCTGATGAATTGGTCAATTCGAGTAAACAAATTTTCCTAATCTTTCTGTTCAAGCGCCATCTAC | 1.08 RPM ratio (pull-down/input) |
| GATGATTGTTCTCCCAGCTGATGAATTGTAGGCATCGAGTAAACAAATTTTCCTAATCTTTCTGTTCAAGCGCCATCTAC | 1.17 RPM ratio (pull-down/input) |
| GATGATTGTTCTCCCAGCTGATGAATTTGACAGCTCGAGTAAACAAATTTTCCTAATCTTTCTGTTCAAGCGCCATCTAC | 0.79 RPM ratio (pull-down/input) |
| GATGATTGTTCTCCCAGCTGATGAATTTATCATCTCGAGTAAACAAATTTTCCTAATCTTTCTGTTCAAGCGCCATCTAC | 1.11 RPM ratio (pull-down/input) |
| GATGATTGTTCTCCCAGCTGATGAATTGGTTGGCTCGAGTAAACAAATTTTCCTAATCTTTCTGTTCAAGCGCCATCTAC | 0.803 RPM ratio (pull-down/input) |
| GATGATTGTTCTCCCAGCTGATGAATTGGGCGGTTCGAGTAAACAAATTTTCCTAATCTTTCTGTTCAAGCGCCATCTAC | 0.837 RPM ratio (pull-down/input) |
| GATGATTGTTCTCCCAGCTGATGAATTTAAATGATCGAGTAAACAAATTTTCCTAATCTTTCTGTTCAAGCGCCATCTAC | 0.947 RPM ratio (pull-down/input) |
| GATGATTGTTCTCCCAGCTGATGAATTAGGTGTGTCGAGTAAACAAATTTTCCTAATCTTTCTGTTCAAGCGCCATCTAC | 1.01 RPM ratio (pull-down/input) |
| GATGATTGTTCTCCCAGCTGATGAATTACATTCTTCGAGTAAACAAATTTTCCTAATCTTTCTGTTCAAGCGCCATCTAC | 1.17 RPM ratio (pull-down/input) |
| GATGATTGTTCTCCCAGCTGATGAATTGTGGAGTTCGAGTAAACAAATTTTCCTAATCTTTCTGTTCAAGCGCCATCTAC | 1.02 RPM ratio (pull-down/input) |

| Sequence | binding signal |
| --- | --- |
| GATGATTGTTCTCCCAGCTGATGAATTTACGCGCTCGAGTAAACAAATTTTCCTAATCTTTCTGTTCAAGCGCCATCTAC | 1.11 RPM ratio (pull-down/input) |
| GATGATTGTTCTCCCAGCTGATGAATTAGCCCAATCGAGTAAACAAATTTTCCTAATCTTTCTGTTCAAGCGCCATCTAC | 1.07 RPM ratio (pull-down/input) |
| GATGATTGTTCTCCCAGCTGATGAATTACAGGCCTCGAGTAAACAAATTTTCCTAATCTTTCTGTTCAAGCGCCATCTAC | 0.987 RPM ratio (pull-down/input) |
| GATGATTGTTCTCCCAGCTGATGAATTCACCACTTCGAGTAAACAAATTTTCCTAATCTTTCTGTTCAAGCGCCATCTAC | 0.895 RPM ratio (pull-down/input) |
| GATGATTGTTCTCCCAGCTGATGAATTGCCGGAGTCGAGTAAACAAATTTTCCTAATCTTTCTGTTCAAGCGCCATCTAC | 0.816 RPM ratio (pull-down/input) |
| GATGATTGTTCTCCCAGCTGATGAATTTGTTAAATCGAGTAAACAAATTTTCCTAATCTTTCTGTTCAAGCGCCATCTAC | 1.36 RPM ratio (pull-down/input) |
| GATGATTGTTCTCCCAGCTGATGAATTCCGCTGGTCGAGTAAACAAATTTTCCTAATCTTTCTGTTCAAGCGCCATCTAC | 0.748 RPM ratio (pull-down/input) |
| GATGATTGTTCTCCCAGCTGATGAATTGTAGCCCTCGAGTAAACAAATTTTCCTAATCTTTCTGTTCAAGCGCCATCTAC | 0.89 RPM ratio (pull-down/input) |
| GATGATTGTTCTCCCAGCTGATGAATTCGGATCATCGAGTAAACAAATTTTCCTAATCTTTCTGTTCAAGCGCCATCTAC | 0.914 RPM ratio (pull-down/input) |
| GATGATTGTTCTCCCAGCTGATGAATTCAAACTCTCGAGTAAACAAATTTTCCTAATCTTTCTGTTCAAGCGCCATCTAC | 0.865 RPM ratio (pull-down/input) |
| GATGATTGTTCTCCCAGCTGATGAATTCGCTCCATCGAGTAAACAAATTTTCCTAATCTTTCTGTTCAAGCGCCATCTAC | 0.913 RPM ratio (pull-down/input) |
| GATGATTGTTCTCCCAGCTGATGAATTGTCACGTTCGAGTAAACAAATTTTCCTAATCTTTCTGTTCAAGCGCCATCTAC | 1.09 RPM ratio (pull-down/input) |
| GATGATTGTTCTCCCAGCTGATGAATTATTTCACTCGAGTAAACAAATTTTCCTAATCTTTCTGTTCAAGCGCCATCTAC | 1.03 RPM ratio (pull-down/input) |
| GATGATTGTTCTCCCAGCTGATGAATTCAACACTTCGAGTAAACAAATTTTCCTAATCTTTCTGTTCAAGCGCCATCTAC | 0.959 RPM ratio (pull-down/input) |
| GATGATTGTTCTCCCAGCTGATGAATTATCCATTTCGAGTAAACAAATTTTCCTAATCTTTCTGTTCAAGCGCCATCTAC | 0.915 RPM ratio (pull-down/input) |
| GATGATTGTTCTCCCAGCTGATGAATTCGTCAAATCGAGTAAACAAATTTTCCTAATCTTTCTGTTCAAGCGCCATCTAC | 0.916 RPM ratio (pull-down/input) |
| GATGATTGTTCTCCCAGCTGATGAATTCTCTCTGTCGAGTAAACAAATTTTCCTAATCTTTCTGTTCAAGCGCCATCTAC | 0.832 RPM ratio (pull-down/input) |
| GATGATTGTTCTCCCAGCTGATGAATTAGAATACTCGAGTAAACAAATTTTCCTAATCTTTCTGTTCAAGCGCCATCTAC | 0.916 RPM ratio (pull-down/input) |
| GATGATTGTTCTCCCAGCTGATGAATTATTCGCCTCGAGTAAACAAATTTTCCTAATCTTTCTGTTCAAGCGCCATCTAC | 1.05 RPM ratio (pull-down/input) |
| GATGATTGTTCTCCCAGCTGATGAATTAAGCCTGTCGAGTAAACAAATTTTCCTAATCTTTCTGTTCAAGCGCCATCTAC | 0.828 RPM ratio (pull-down/input) |

From article PMC12820563, “FoxP3 forms a head-to-head dimer in vivo and stabilizes its multimerization on adjacent microsatellites”
